# Some of the results follow.
# B1: FliC (Pseudomonas aeruginosa), P72151 (protein)
# chain: MALTVNTNIASLNTQRNLNASSNDLNTSLQRLTTGYRINSAKDDAAGLQISNRLSNQISGLNVATRNANDGISLAQTAEGALQQSTNILQRIRDLALQSANGSNSDADRAALQKEVAAQQAELTRISDTTTFGGRKLLDGSFGTTSFQVGSNAYETIDISLQNASASAIGSYQVGSNGAGTVASVAGTATASGIASGTVNLVGGGQVKNIAIAAGDSAKAIAEKMDGAIPNLSARARTVFTADVSGVTGGSLNFDVTVGSNTVSLAGVTSTQDLADQLNSNSSKLGITASINDKGVLTITSATGENVKFGAQTGTATAGQVAVKVQGSDGKFEAAAKNVVAAGTAATTTIVTGYVQLNSPTAYSVSGTGTQASQVFGNASAAQKSSVASVDISTADGAQNAIAVVDNALAAIDAQRADLGAVQNRFKNTIDNLTNISENATNARSRIKDTDFAAETAALSKNQVLQQAGTAILAQANQLPQAVLSLLR
# How the values were obtained:
# Experiment in all cases: glycan array binding signal (z-score within array); higher = stronger binding
# Conditions in all cases: glycan notation: IUPAC condensed, linker removed
# [1] = target: Neu5Ac(a2-3)Gal(b1-4)Glc
# Method in brief: (§1)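 Glycan array data were curated from 3228 arrays in the Consortium for Functional Glycomics database and kept only where the protein sequence was available. Glycan names were converted to IUPAC-condensed notation, and columns mapping to the same glycan were averaged. The binding signal is a within-array Z-score, averaged across arrays of the same protein sequence at different concentrations or buffers and across linkers. Negative Z-scores can be read as non-binding.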
# [2] = target: Neu5Ac(a2-3)Gal(b1-4)GlcNAc
# Method in brief: as §1
# [3] = target: Neu5Ac(a2-3)Gal(b1-4)GlcNAc(b1-2)Man
# Method in brief: as §1
# [4] = target: Neu5Ac(a2-3)Gal(b1-4)GlcNAc(b1-2)Man(a1-3)[GlcNAc(b1-4)][Neu5Ac(a2-3)Gal(b1-4)GlcNAc(b1-2)Man(a1-6)]Man(b1-4)GlcNAc(b1-4)GlcNAc
# Method in brief: as §1
# [5] = target: Neu5Ac(a2-3)Gal(b1-4)GlcNAc(b1-2)Man(a1-3)[Neu5Ac(a2-3)Gal(b1-4)GlcNAc(b1-2)Man(a1-6)]Man(b1-4)GlcNAc(b1-4)GlcNAc
# Method in brief: as §1
# [6] = target: Neu5Ac(a2-3)Gal(b1-4)GlcNAc(b1-2)Man(a1-3)[Neu5Ac(a2-3)Gal(b1-4)GlcNAc(b1-2)Man(a1-6)]Man(b1-4)GlcNAc(b1-4)[Fuc(a1-6)]GlcNAc
# Method in brief: as §1
# [7] = target: Neu5Ac(a2-3)Gal(b1-4)GlcNAc(b1-2)Man(a1-3)[Neu5Ac(a2-6)Gal(b1-4)GlcNAc(b1-2)Man(a1-6)]Man(b1-4)GlcNAc(b1-4)GlcNAc
# Method in brief: as §1
# [8] = target: Neu5Ac(a2-3)Gal(b1-4)GlcNAc(b1-2)[Neu5Ac(a2-3)Gal(b1-4)GlcNAc(b1-4)]Man(a1-3)[GlcNAc(b1-4)][Neu5Ac(a2-3)Gal(b1-4)GlcNAc(b1-2)[Neu5Ac(a2-3)Gal(b1-4)GlcNAc(b1-6)]Man(a1-6)]Man(b1-4)GlcNAc(b1-4)GlcNAc
# Method in brief: as §1
# [9] = target: Neu5Ac(a2-3)Gal(b1-4)GlcNAc(b1-2)[Neu5Ac(a2-3)Gal(b1-4)GlcNAc(b1-4)]Man(a1-3)[GlcNAc(b1-4)][Neu5Ac(a2-3)Gal(b1-4)GlcNAc(b1-4)Man(a1-6)]Man(b1-4)GlcNAc(b1-4)GlcNAc
# Method in brief: as §1
# [10] = target: Neu5Ac(a2-3)Gal(b1-4)GlcNAc(b1-2)[Neu5Ac(a2-3)Gal(b1-4)GlcNAc(b1-6)]Man(a1-6)[Neu5Ac(a2-3)Gal(b1-4)GlcNAc(b1-2)Man(a1-3)]Man(b1-4)GlcNAc(b1-4)GlcNAc
# Method in brief: as §1
# [11] = target: Neu5Ac(a2-3)Gal(b1-4)GlcNAc(b1-2)[Neu5Ac(a2-3)Gal(b1-4)GlcNAc(b1-6)]Man(a1-6)[Neu5Ac(a2-3)Gal(b1-4)GlcNAc(b1-2)Man(a1-3)][GlcNAc(b1-4)]Man(b1-4)GlcNAc(b1-4)GlcNAc
# Method in brief: as §1
# [12] = target: Neu5Ac(a2-3)Gal(b1-4)GlcNAc(b1-3)Gal
# Method in brief: as §1
# [13] = target: Neu5Ac(a2-3)Gal(b1-4)GlcNAc(b1-3)Gal(b1-3)GlcNAc
# Method in brief: as §1
# [14] = target: Neu5Ac(a2-3)Gal(b1-4)GlcNAc(b1-3)Gal(b1-4)GlcNAc
# Method in brief: as §1
# [15] = target: Neu5Ac(a2-3)Gal(b1-4)GlcNAc(b1-3)Gal(b1-4)GlcNAc(b1-2)Man(a1-3)[Neu5Ac(a2-3)Gal(b1-4)GlcNAc(b1-3)Gal(b1-4)GlcNAc(b1-2)Man(a1-6)]Man(b1-4)GlcNAc(b1-4)GlcNAc
# Method in brief: as §1
# [16] = target: Neu5Ac(a2-3)Gal(b1-4)GlcNAc(b1-3)Gal(b1-4)GlcNAc(b1-3)Gal(b1-4)GlcNAc
# Method in brief: as §1
# [17] = target: Neu5Ac(a2-3)Gal(b1-4)GlcNAc(b1-3)Gal(b1-4)GlcNAc(b1-3)Gal(b1-4)GlcNAc(b1-2)Man(a1-3)[Neu5Ac(a2-3)Gal(b1-4)GlcNAc(b1-3)Gal(b1-4)GlcNAc(b1-3)Gal(b1-4)GlcNAc(b1-2)Man(a1-6)]GalNAc
# Method in brief: as §1
# [18] = target: Neu5Ac(a2-3)Gal(b1-4)GlcNAc(b1-3)Gal(b1-4)GlcNAc(b1-3)GalNAc
# Method in brief: as §1
# [19] = target: Neu5Ac(a2-3)Gal(b1-4)GlcNAc(b1-3)Gal(b1-4)GlcNAc(b1-3)[Neu5Ac(a2-3)Gal(b1-4)GlcNAc(b1-3)Gal(b1-4)GlcNAc(b1-6)]GalNAc
# Method in brief: as §1
# [20] = target: Neu5Ac(a2-3)Gal(b1-4)GlcNAc(b1-3)Gal(b1-4)GlcNAc(b1-6)[Gal(b1-3)]GalNAc
# Method in brief: as §1
# [21] = target: Neu5Ac(a2-3)Gal(b1-4)GlcNAc(b1-3)Gal(b1-4)[Fuc(a1-3)]GlcNAc
# Method in brief: as §1
# [22] = target: Neu5Ac(a2-3)Gal(b1-4)GlcNAc(b1-3)GalNAc
# Method in brief: as §1
# [23] = target: Neu5Ac(a2-3)Gal(b1-4)GlcNAc(b1-3)[Neu5Ac(a2-3)Gal(b1-4)GlcNAc(b1-6)]GalNAc
# Method in brief: as §1
# [24] = target: Neu5Ac(a2-3)Gal(b1-4)GlcNAc(b1-6)GalNAc
# Method in brief: as §1
# [25] = target: Neu5Ac(a2-3)Gal(b1-4)GlcNAc(b1-6)[Gal(b1-3)]GalNAc
# Method in brief: as §1
# [26] = target: Neu5Ac(a2-3)Gal(b1-4)GlcNAc(b1-6)[Neu5Ac(a2-3)Gal(b1-3)]GalNAc
# Method in brief: as §1
# [27] = target: Neu5Ac(a2-3)Gal(b1-4)GlcNAc6S
# Method in brief: as §1
# [28] = target: Neu5Ac(a2-3)Gal(b1-4)[Fuc(a1-3)]GlcNAc
# Method in brief: as §1
# [29] = target: Neu5Ac(a2-3)Gal(b1-4)[Fuc(a1-3)]GlcNAc(b1-2)Man
# Method in brief: as §1
# [30] = target: Neu5Ac(a2-3)Gal(b1-4)[Fuc(a1-3)]GlcNAc(b1-3)Gal
# Method in brief: as §1
# [31] = target: Neu5Ac(a2-3)Gal(b1-4)[Fuc(a1-3)]GlcNAc(b1-3)Gal(b1-4)GlcNAc
# Method in brief: as §1
# [32] = target: Neu5Ac(a2-3)Gal(b1-4)[Fuc(a1-3)]GlcNAc(b1-3)Gal(b1-4)[Fuc(a1-3)]GlcNAc(b1-3)Gal(b1-4)[Fuc(a1-3)]GlcNAc
# Method in brief: as §1
# [33] = target: Neu5Ac(a2-3)Gal(b1-4)[Fuc(a1-3)]GlcNAc(b1-3)GalNAc
# Method in brief: as §1
# [34] = target: Neu5Ac(a2-3)Gal(b1-4)[Fuc(a1-3)]GlcNAc(b1-6)[Gal(b1-3)]GalNAc
# Method in brief: as §1
# [35] = target: Neu5Ac(a2-3)Gal(b1-4)[Fuc(a1-3)]GlcNAc(b1-6)[Neu5Ac(a2-3)Gal(b1-3)]GalNAc
# Method in brief: as §1
# [36] = target: Neu5Ac(a2-3)Gal(b1-4)[Fuc(a1-3)]GlcNAc6S
# Method in brief: as §1
# [37] = target: Neu5Ac(a2-3)Gal6S(b1-4)GlcNAc
# Method in brief: as §1
# [38] = target: Neu5Ac(a2-3)Gal6S(b1-4)[Fuc(a1-3)]GlcNAc
# Method in brief: as §1
binder,measurement,setting,value
B1,glycan array binding signal (z-score),[1],-0.108
same,glycan array binding signal (z-score),[2],-0.171
same,glycan array binding signal (z-score),[3],-0.083
same,glycan array binding signal (z-score),[4],-0.188
same,glycan array binding signal (z-score),[5],-0.103
same,glycan array binding signal (z-score),[6],20.9
same,glycan array binding signal (z-score),[7],-0.156
same,glycan array binding signal (z-score),[8],8.36
same,glycan array binding signal (z-score),[9],0.831
same,glycan array binding signal (z-score),[10],-0.196
same,glycan array binding signal (z-score),[11],-0.193
same,glycan array binding signal (z-score),[12],-0.191
same,glycan array binding signal (z-score),[13],-0.185
same,glycan array binding signal (z-score),[14],-0.134
same,glycan array binding signal (z-score),[15],-0.073
same,glycan array binding signal (z-score),[16],0.251
same,glycan array binding signal (z-score),[17],0.039
same,glycan array binding signal (z-score),[18],-0.217
same,glycan array binding signal (z-score),[19],-0.117
same,glycan array binding signal (z-score),[20],-0.104
same,glycan array binding signal (z-score),[21],-0.109
same,glycan array binding signal (z-score),[22],-0.213
same,glycan array binding signal (z-score),[23],-0.171
same,glycan array binding signal (z-score),[24],-0.163
same,glycan array binding signal (z-score),[25],-0.17
same,glycan array binding signal (z-score),[26],0.476
same,glycan array binding signal (z-score),[27],-0.132
same,glycan array binding signal (z-score),[28],0.173
same,glycan array binding signal (z-score),[29],-0.25
same,glycan array binding signal (z-score),[30],0.271
same,glycan array binding signal (z-score),[31],-0.166
same,glycan array binding signal (z-score),[32],3.22
same,glycan array binding signal (z-score),[33],-0.081
same,glycan array binding signal (z-score),[34],-0.124
same,glycan array binding signal (z-score),[35],-0.095
same,glycan array binding signal (z-score),[36],-0.203
same,glycan array binding signal (z-score),[37],-0.218
same,glycan array binding signal (z-score),[38],-0.129
